Data taken from the antibiotic and cytotoxicity screens of Wong et al. (2023).
Some of the results follow.

Experiments:
[1] = test system: HSkMC (human skeletal muscle cells); assay: cytotoxicity call (relative viability < 0.9); settings: 10 µM
[2] = test system: HepG2; assay: cytotoxicity call (relative viability < 0.9); settings: 10 µM
[3] = test system: S. aureus RN4220; assay: growth inhibition call (relative growth <= 0.2); settings: 50 µM

Cc1noc(C)c1NC(=O)Nc1cccc2c1O[C@@H](CN(C)C(=O)NC(C)C)[C@@H](C)CN([C@@H](C)CO)C2=O
inactive: cytotoxicity call [1] | cytotoxicity call [2] | growth inhibition call [3]

C[C@H]1CN([C@@H](C)CO)C(=O)c2cccc(NS(=O)(=O)c3ccc(Cl)cc3)c2O[C@H]1CN(C)S(C)(=O)=O
inactive: cytotoxicity call [1] | cytotoxicity call [2] | growth inhibition call [3]

CC(=O)N(C)C[C@@H]1Oc2ncc(C#C[C@@H](C)O)cc2C(=O)N([C@H](C)CO)C[C@H]1C
inactive: cytotoxicity call [1] | cytotoxicity call [2] | growth inhibition call [3]

CN(C)CCCNC(=O)C[C@H]1C=C[C@H](NS(=O)(=O)c2ccccc2)[C@@H](CO)O1
inactive: cytotoxicity call [1] | cytotoxicity call [2] | growth inhibition call [3]

COc1ccc(NC(=O)N2C[C@H](O)COC[C@H]3O[C@@H](CC(=O)NC4Cc5ccccc5C4)CC[C@@H]32)cc1
inactive: cytotoxicity call [1] | cytotoxicity call [2] | growth inhibition call [3]

CCc1nnc(NC(=O)c2nnc[nH]2)s1
inactive: cytotoxicity call [1] | cytotoxicity call [2] | growth inhibition call [3]

N[C@H]1C[C@@H]1c1ccc(-c2cccc(O)c2)cc1
inactive: cytotoxicity call [1] | cytotoxicity call [2] | growth inhibition call [3]

Cc1cc(C(=O)Nc2cccc3c2O[C@H](CN(C)Cc2ccc(Oc4ccccc4)cc2)[C@H](C)CN([C@@H](C)CO)C3=O)n(C)n1
inactive: cytotoxicity call [1] | cytotoxicity call [2] | growth inhibition call [3]

Cc1noc(C)c1NC(=O)Nc1cccc2c1O[C@@H](CN(C)S(=O)(=O)c1ccccc1)[C@H](C)CN([C@H](C)CO)C2=O
inactive: cytotoxicity call [1] | cytotoxicity call [2] | growth inhibition call [3]

C[C@@H]1CN([C@@H](C)CO)C(=O)c2cc(NC(=O)Nc3cccc4ccccc34)ccc2O[C@H]1CN(C)C(=O)Nc1ccc2c(c1)OCO2
inactive: cytotoxicity call [1] | cytotoxicity call [2] | growth inhibition call [3]
